Measured values reported in the supplement of paper PMC7826260.
Some of the results follow. Each Rep nickase domain was tested in vitro on the same pool of single strands at 3 µM enzyme and 37 °C for 1 h; the strands have 90 letters, of which the middle is given. The score is log2 (uncut reads / reads without enzyme); more negative means more cut, near 0 not cut, and no call is made. The scaling is to total reads; where an enzyme cuts many sequences, the uncut ones exceed 0.

Test system: T1, Rep nickase domain of tomato golden mosaic virus
T1 sequence (residues 1-124 of Rep, tag left off): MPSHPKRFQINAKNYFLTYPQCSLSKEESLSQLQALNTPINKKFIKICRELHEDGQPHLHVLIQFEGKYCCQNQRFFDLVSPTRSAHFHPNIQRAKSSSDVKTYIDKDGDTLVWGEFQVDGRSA
Assay: uncleaved DNA left, log2 of reads against the no-enzyme library (log2 ratio); higher = less cleavage (more negative = more Rep cleavage of the k-mer); sequences stand for … in CTCGTCCG…ACCGGAGA
Procedure: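 A pool of 90-nt single-stranded DNAs with seven random bases just before the constant AC of the nick site (name = the seven bases) was cut by 3 µM recombinant His6-SUMO-tagged Rep nickase domain (300 nM DNA, 50 mM HEPES pH 8.0, 50 mM NaCl, 1 mM MnCl2, 1 h, 37 °C, three replicates). Uncut DNA was amplified and sequenced.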

Sequence | uncleaved DNA left (log2)
GACCCTG | 0.114
GTTCATT | 0.121
TGCAATT | 0.0273
CAATGGC | -0.104
GGAGCAC | 0.0963
ACGGTGT | 0.047
TTATCTC | -0.186
AGGGACC | 0.0973
ATCCCTA | -0.0278
GACCCAC | -0.0125
ACTCAGA | -0.0174
TAACATA | -0.117
GGGCGAT | -0.0524
TGCCACC | -0.221
GCCTAGA | 0.0627
GATGCCT | -0.0212
GGGGTGC | 0.0696
GGTAAAC | 0.00529
ATTGCTC | -0.127
TCTCCCA | -0.0658

Sequence | uncleaved DNA left (log2)
GGCACTT | -0.0714
CTATTCA | -0.0757
CGCTCGT | -0.0809
CGAATGG | -0.0863
CCCGTTC | -0.205
CTTTGGG | 0.0152
TTCCTTG | -0.0288
GGCTGCC | -0.084
TCGCAGT | -0.00221
TGTGCAG | -0.224
GCCACGA | 0.00276
GACGTGC | -0.137
GAAGTGG | 0.0214
CGAGGGC | 0.0643
ACGTACA | -0.0785
ACATGCC | -0.043
TCGACTC | -0.156
AGTGGGG | 0.224
TCTTCGG | 0.168
GTGTCTT | -0.0418
